# Measured values published in the supplement of paper PMC4604168 (melanoma cell lines).
# The other results are listed elsewhere or left out. Single values are uncertain, as repeats are few or missing.
# System: IPC-298
# Assay: cell count relative to DMSO control; melanoma cells; higher = more viable cells
# Conditions: library dose: low library concentration; 72 h
# 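Also: cell number obtained by counting DAPI-stained nuclei in high-throughput microscope images with image analysis software, screen run in 1,536-well plates.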
row,Structure (SMILES),cell count
1,"C[C@@H](Oc1cc(-c2cnn(C3CCNCC3)c2)cnc1N)c1c(Cl)ccc(F)c1Cl [Crizotinib] + C#Cc1cccc(Nc2ncnc3cc(OCCOC)c(OCCOC)cc23)c1 [erlotinib] (first compound 0.2 µM, partner dose 0.8 µM)",91.2%
2,"CNC(=O)c1cc(Oc2ccc(NC(=O)Nc3ccc(Cl)c(C(F)(F)F)c3)cc2)ccn1 [sorafenib] + Cn1c(Nc2ccc(C(F)(F)F)cc2)nc2cc(Oc3ccnc(-c4ncc(C(F)(F)F)[nH]4)c3)ccc21 [CHIR265] (first compound 0.4 µM, partner dose 0.08 µM)",63.2%
3,"C=CCNC1=C2C[C@@H](C)C[C@H](OC)[C@H](O)[C@@H](C)/C=C(\C)[C@H](OC(N)=O)[C@@H](OC)/C=C\C=C(/C)C(=O)NC(=CC1=O)C2=O [Tanespimycin] + CC(=O)c1c(C)c2cnc(Nc3ccc(N4CCNCC4)cn3)nc2n(C2CCCC2)c1=O [palbociclib] (first compound 0.002 µM, partner dose 0.04 µM)",84.9%
4,"CN1CCN(c2ccc3nc(-c4c(N)c5c(F)cccc5[nH]c4=O)[nH]c3c2)CC1 [Dovitinib] + Cc1nc(Nc2ncc(C(=O)Nc3c(C)cccc3Cl)s2)cc(N2CCN(CCO)CC2)n1 [dasatanib] (first compound 0.1 µM, partner dose 0.004 µM)",97.6%
5,"CN1CCN(c2ccc3nc(-c4c(N)c5c(F)cccc5[nH]c4=O)[nH]c3c2)CC1 [Dovitinib] + C=C(c1ccc(C(=O)O)cc1)c1cc2c(cc1C)C(C)(C)CCC2(C)C [Bexarotene] (first compound 0.1 µM, partner dose 2 µM)",92.6%
6,"CNC(=O)c1cc(Oc2ccc(NC(=O)Nc3ccc(Cl)c(C(F)(F)F)c3)cc2)ccn1 [sorafenib] + CC(=O)c1c(C)c2cnc(Nc3ccc(N4CCNCC4)cn3)nc2n(C2CCCC2)c1=O [palbociclib] (first compound 0.4 µM, partner dose 0.04 µM)",82%
7,"C=CCNC1=C2C[C@@H](C)C[C@H](OC)[C@H](O)[C@@H](C)/C=C(\C)[C@H](OC(N)=O)[C@@H](OC)/C=C\C=C(/C)C(=O)NC(=CC1=O)C2=O [Tanespimycin] + OCc1c[nH]c2ccccc12 [Indole-3-carbinol] (first compound 0.002 µM, partner dose 0.8 µM)",93.3%
8,"CS(=O)(=O)CCNCc1ccc(-c2ccc3ncnc(Nc4ccc(OCc5cccc(F)c5)c(Cl)c4)c3c2)o1 [lapatinib] + Cn1c(Nc2ccc(C(F)(F)F)cc2)nc2cc(Oc3ccnc(-c4ncc(C(F)(F)F)[nH]4)c3)ccc21 [CHIR265] (first compound 0.8 µM, partner dose 0.08 µM)",61.8%
9,"CN1CCN(c2ccc3nc(-c4c(N)c5c(F)cccc5[nH]c4=O)[nH]c3c2)CC1 [Dovitinib] + C=CCNC1=C2C[C@@H](C)C[C@H](OC)[C@H](O)[C@@H](C)/C=C(\C)[C@H](OC(N)=O)[C@@H](OC)/C=C\C=C(/C)C(=O)NC(=CC1=O)C2=O [Tanespimycin] (first compound 0.1 µM, partner dose 0.002 µM)",94.8%
10,"CN1CCN(c2ccc3nc(-c4c(N)c5c(F)cccc5[nH]c4=O)[nH]c3c2)CC1 [Dovitinib] + Nc1cccc2c1CN(C1CCC(=O)NC1=O)C2=O [lenalidomide] (first compound 0.1 µM, partner dose 1 µM)",96.9%
11,"CN1CCN(c2ccc3nc(-c4c(N)c5c(F)cccc5[nH]c4=O)[nH]c3c2)CC1 [Dovitinib] + O=C(O)[C@@H]1[O][Sb](=[O])([O][Sb]2(=[O])[O][C@H]([C@H](O)CO)[C@H](O)[C@H](C(=O)O)[O]2)[O][C@H]([C@H](O)CO)[C@@H]1O [stibogluconate] (first compound 0.1 µM, partner dose 2 µM)",109%
12,"C=CCNC1=C2C[C@@H](C)C[C@H](OC)[C@H](O)[C@@H](C)/C=C(\C)[C@H](OC(N)=O)[C@@H](OC)/C=C\C=C(/C)C(=O)NC(=CC1=O)C2=O [Tanespimycin] + COc1ccc(Cl)c(Nc2nc3ccccc3nc2NS(=O)(=O)c2cccc(NC(=O)C(C)(C)N)c2)c1 [XL147] (first compound 0.002 µM, partner dose 0.8 µM)",93.2%
13,"CN1CCN(c2ccc3nc(-c4c(N)c5c(F)cccc5[nH]c4=O)[nH]c3c2)CC1 [Dovitinib] + Nc1ncn([C@H]2C[C@H](O)[C@@H](CO)O2)c(=O)n1 [decitabine] (first compound 0.1 µM, partner dose 0.1 µM)",71.2%
14,"C[C@@H](Oc1cc(-c2cnn(C3CCNCC3)c2)cnc1N)c1c(Cl)ccc(F)c1Cl [Crizotinib] + Cc1nc(Nc2ncc(C(=O)Nc3c(C)cccc3Cl)s2)cc(N2CCN(CCO)CC2)n1 [dasatanib] (first compound 0.2 µM, partner dose 0.004 µM)",93.2%
15,"CS(=O)(=O)CCNCc1ccc(-c2ccc3ncnc(Nc4ccc(OCc5cccc(F)c5)c(Cl)c4)c3c2)o1 [lapatinib] + CC(=O)c1c(C)c2cnc(Nc3ccc(N4CCNCC4)cn3)nc2n(C2CCCC2)c1=O [palbociclib] (first compound 0.8 µM, partner dose 0.04 µM)",97.8%
16,"CS(=O)(=O)CCNCc1ccc(-c2ccc3ncnc(Nc4ccc(OCc5cccc(F)c5)c(Cl)c4)c3c2)o1 [lapatinib] + COCC[n+]1c2c(n(Cc3cnccn3)c1C)C(=O)c1ccccc1C2=O [YM155] (first compound 0.8 µM, partner dose 0.0004 µM)",82.2%
17,"CN1CCN(c2ccc3nc(-c4c(N)c5c(F)cccc5[nH]c4=O)[nH]c3c2)CC1 [Dovitinib] + COCC[n+]1c2c(n(Cc3cnccn3)c1C)C(=O)c1ccccc1C2=O [YM155] (first compound 0.1 µM, partner dose 0.0004 µM)",92.3%
18,"C[C@@H](Oc1cc(-c2cnn(C3CCNCC3)c2)cnc1N)c1c(Cl)ccc(F)c1Cl [Crizotinib] + CCCS(=O)(=O)Nc1ccc(F)c(C(=O)c2c[nH]c3ncc(Cl)cc23)c1F [PLX4720] (first compound 0.2 µM, partner dose 0.08 µM)",91%
19,"C=CCNC1=C2C[C@@H](C)C[C@H](OC)[C@H](O)[C@@H](C)/C=C(\C)[C@H](OC(N)=O)[C@@H](OC)/C=C\C=C(/C)C(=O)NC(=CC1=O)C2=O [Tanespimycin] + Cc1nc(Nc2ncc(C(=O)Nc3c(C)cccc3Cl)s2)cc(N2CCN(CCO)CC2)n1 [dasatanib] (first compound 0.002 µM, partner dose 0.004 µM)",94.4%
20,"CS(=O)(=O)CCNCc1ccc(-c2ccc3ncnc(Nc4ccc(OCc5cccc(F)c5)c(Cl)c4)c3c2)o1 [lapatinib] + Nc1nc(F)nc2c1ncn2[C@@H]1O[C@H](CO)[C@@H](O)[C@@H]1O [fludarabine] (first compound 0.8 µM, partner dose 0.2 µM)",95.6%
21,"C[C@@H](Oc1cc(-c2cnn(C3CCNCC3)c2)cnc1N)c1c(Cl)ccc(F)c1Cl [Crizotinib] + Nc1cccc2c1CN(C1CCC(=O)NC1=O)C2=O [lenalidomide] (first compound 0.2 µM, partner dose 1 µM)",102%
22,"C[C@@H](Oc1cc(-c2cnn(C3CCNCC3)c2)cnc1N)c1c(Cl)ccc(F)c1Cl [Crizotinib] + COc1ccc(Cl)c(Nc2nc3ccccc3nc2NS(=O)(=O)c2cccc(NC(=O)C(C)(C)N)c2)c1 [XL147] (first compound 0.2 µM, partner dose 0.8 µM)",92.2%
23,"CS(=O)(=O)CCNCc1ccc(-c2ccc3ncnc(Nc4ccc(OCc5cccc(F)c5)c(Cl)c4)c3c2)o1 [lapatinib] + CCCS(=O)(=O)Nc1ccc(F)c(C(=O)c2c[nH]c3ncc(Cl)cc23)c1F [PLX4720] (first compound 0.8 µM, partner dose 0.08 µM)",91.4%
